According to the supplement of paper PMC4166925:
± gives the standard deviation of the averaged measurements. Whole data set: some 33,000 sequences, median “E-score (dimensionless, -0.5 to 0.5)” near -0.049, cut for the highest 2% near 0.37. The list shows a part of the results.

System: T1, PmTbr T-box DNA-binding domain (GST fusion)
T1 sequence: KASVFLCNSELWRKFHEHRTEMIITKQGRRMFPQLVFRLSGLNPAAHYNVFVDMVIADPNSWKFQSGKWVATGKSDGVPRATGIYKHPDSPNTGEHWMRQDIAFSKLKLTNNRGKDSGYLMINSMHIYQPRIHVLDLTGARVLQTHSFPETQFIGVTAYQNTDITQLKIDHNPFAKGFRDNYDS
Assay: PBM E-score of 8-mer (E-score (dimensionless, -0.5 to 0.5)); Tbr is Tbrain of the sea star Patiria miniata (Pm) or the sea urchin Strongylocentrotus purpuratus (Sp); higher = stronger binding preference; most listed sequences are background and not binding sites
Conditions: the construct has about 5 more residues each side
How it was run: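 Primer extension turned Universal Agilent oligonucleotide arrays double-stranded. They were incubated with 200 nM protein in PBS (pH 7.5); the protein was a GST-fused Tbr T-box DNA-binding domain expressed in BL21 E. coli at 20 °C and purified on glutathione. Every ungapped 8-mer was scored from the scanned, quantified probe intensities, and the Universal PBM Analysis Suite gave each an enrichment E-score averaged over duplicate arrays.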

Sequence | PBM E-score of 8-mer
GGGCACAC | 0.0773 ± 0.041
ACCCTTTA | 0.035 ± 0.043
ACGGCAAA | -0.245 ± 0.047
AGCCCCCC | -0.112 ± 0.046
CAATATCG | 0.06478 ± 0.00031
ATTATAAG | -0.2289 ± 0.00032
GCTTAGGA | -0.125 ± 0.036
CCATTACA | 0.0321 ± 0.063
CGGAGCCA | -0.179 ± 0.091
GAGGGCAC | -0.113 ± 0.017
CATCGTGC | -0.0291 ± 0.084
CCTATGCG | 0.137 ± 0.023
AACCGTCG | 0.0733 ± 0.046
ATCCCGCA | -0.0983 ± 0.014
GTCCTTGA | -0.206 ± 0.0022
AAAAGCGA | 0.0236 ± 0.086
AACCCCCC | -0.201 ± 0.06
ATGCCCCC | -0.293 ± 0.065
CGCAGAGC | -0.0402 ± 0.014
CTAACTGC | 0.131 ± 0.0079
GCATCTTA | -0.138 ± 0.037
ACCTACAG | 0.212 ± 0.072
CTCCGTGA | 0.0763 ± 0.078
CATCAAGG | -0.125 ± 0.024
GTACTAAC | -0.0106 ± 0.075

Sequence | PBM E-score of 8-mer
CCAATTAC | -0.0328 ± 0.018
AATGGTAG | 0.0269 ± 0.039
GACCACAA | -0.103 ± 0.095
GTCGCTGA | 0.111 ± 0.071
ACATACAG | 0.0863 ± 0.053
GAGACTAC | -0.227 ± 0.069
CCGAAAAC | -0.165 ± 0.035
AAGACTGA | -0.145 ± 0.0051
ATTGACCC | -0.0187 ± 0.017
ACTCAACG | -0.122 ± 0.033
ACTTAAGG | -0.0457 ± 0.01
ACGGCGCT | 0.187 ± 0.094
ATAGGTGG | 0.26 ± 0.051
GGGGCCCA | -0.101 ± 0.011
CAAATCAG | -0.038 ± 0.029
TACGACGA | 0.0232 ± 0.034
GGCTCATA | -0.172 ± 0.078
CATTCCGA | 0.102 ± 0.028
CTGATAGC | 0.0709 ± 0.043
CCTAAATA | -0.143 ± 0.023
AGCACCTC | 0.4279 ± 0.0012
ACCCCAAA | -0.102 ± 0.055
ATATTTCA | 0.133 ± 0.071
AACAAGGG | -0.0471 ± 0.065
AAACAAAC | -0.235 ± 0.068

Sequence | PBM E-score of 8-mer
AAGATCTG | -0.162 ± 0.066
CTCCCAAA | -0.105 ± 0.0091
CGCATCAA | -0.0871 ± 0.16
AAAATGGT | 0.0989 ± 0.048
ATGTCCTA | -0.284 ± 0.056
ACATCCCT | -0.0937 ± 0.058
TGTAGGAA | -0.0534 ± 0.022
CACGTCCC | 0.156 ± 0.047
AGGTTGAA | -0.273 ± 0.056
AAGAGCTG | -0.00496 ± 0.016
AAATACCG | -0.139 ± 0.013
AGGCCCAA | -0.224 ± 0.0036
TTATAGAA | -0.218 ± 0.075
CGCCACAG | 0.0395 ± 0.054
CCGAAATA | 0.0155 ± 0.026
CCTGTTTC | -0.145 ± 0.032
ATTGAAAG | -0.139 ± 0.056
AGCAGTCA | 0.00374 ± 0.013
ACTTTTGG | 0.0502 ± 0.058
AAACCGTG | 0.137 ± 0.07
CCTGCAGC | -0.113 ± 0.099
CCGTTACA | -0.0148 ± 0.054
GCCGCATA | -0.00303 ± 0.028
TATCCATA | -0.278 ± 0.055
TGCCAACA | 0.326 ± 0.011

Sequence | PBM E-score of 8-mer
TATCGGGA | -0.00353 ± 0.05
AGTTAGTG | 0.139 ± 0.029
AAATAGAT | -0.277 ± 0.042
ACCGGCGA | -0.0452 ± 0.01
ACTGTGAT | 0.152 ± 0.046
CTCTATAA | -0.0289 ± 0.0099
ATAAGCAC | 0.0395 ± 0.011
CATATAGG | 0.0701 ± 0.033
TACTGACA | 0.1838 ± 0.00074
AAACTATC | -0.215 ± 0.063
ACATCATC | -0.0863 ± 0.028
CTGGGTGC | 0.233 ± 0.036
GGCCAATA | -0.184 ± 0.0071
CGATTCCG | -0.116 ± 0.0064
AGCTTACA | 0.0783 ± 0.02
CTCGTAGA | -0.365 ± 0.0046
GGGAGGAA | -0.221 ± 0.0088
TAGCGGCA | 0.0995 ± 0.05
AAACCAGC | 0.0308 ± 0.11
GAAGTGGA | -0.0636 ± 0.031
GACCTCCA | -0.255 ± 0.021
TCCGGCGA | -0.0739 ± 0.05
CCGGACAA | -0.165 ± 0.0012
AACGCGGC | 0.0868 ± 0.026
GGAGTATA | -0.249 ± 0.0022

Sequence | PBM E-score of 8-mer
CGGTCTTC | -0.137 ± 0.033
GTGATCGA | 0.069 ± 0.075
CCCATGAG | -0.096 ± 0.08
ATGAATGA | -0.161 ± 0.024
GGAAAGCC | -0.093 ± 0.0086
ATTGGCCA | -0.109 ± 0.0045
TGGTGCAA | 0.192 ± 0.012
GTCCCTTA | -0.157 ± 0.0061
AACGACGA | 0.0745 ± 0.037
GAGAGCTA | -0.0198 ± 0.011
GAAGATGA | 0.137 ± 0.059
ACCGTACA | -0.208 ± 0.034
GTACGCCA | -0.195 ± 0.077
CTGACTAC | -0.239 ± 0.045
ACTAAACG | -0.21 ± 0.015
CACCGCAC | 0.163 ± 0.024
GCATGGCA | 0.0387 ± 0.0061
ACGGGTAA | -0.0408 ± 0.072
CAGCTTGG | 0.0903 ± 0.044
GCGAAACC | 0.275 ± 0.015
AAAGGAAC | -0.149 ± 0.013
GCGCCCAA | 0.077 ± 0.035
TCTATAGA | -0.46 ± 0.026
CTAACCTC | -0.131 ± 0.013
GAGGCCCC | -0.308 ± 0.018

Sequence | PBM E-score of 8-mer
AGGCCCAT | -0.274 ± 0.028
CCGAGAGC | -0.139 ± 0.047
ATTAGCAA | 0.12 ± 0.092
AAAGGTTA | -0.0814 ± 0.057
ACCGCCGC | -0.0961 ± 0.12
ACCGCGTC | 0.134 ± 0.016
TATCGTAA | -0.0592 ± 0.061
GGTGATAC | 0.364 ± 0.025
AAAAGCAG | 0.11 ± 0.04
ACACGTGC | 0.387 ± 0.023
ATAAGGAC | -0.231 ± 0.0087
CAACGGTA | -0.113 ± 0.034
ACGGGAGC | -0.116 ± 0.046
CACAGCAG | -0.0101 ± 0.077
TAGGTCCA | -0.117 ± 0.02
CCAGATGA | -0.279 ± 0.085
AATACGTA | -0.145 ± 0.081
TATCTTAA | -0.157 ± 0.024
ATTATCAC | 0.38 ± 0.053
CATGAACG | -0.129 ± 0.012
AGTCTCAC | 0.3582 ± 0.00078
GGGGGCGA | 0.01664 ± 0.00016
CCCAAGCC | -0.228 ± 0.037
AATCGATT | -0.196 ± 0.057
CAGCCACA | 0.0349 ± 0.1

Sequence | PBM E-score of 8-mer
CTGGCACC | 0.411 ± 0.018
CTGCGTAC | -0.0912 ± 0.038
GTGTGTAA | 0.214 ± 0.022
AGAACCAC | -0.13 ± 0.026
ACGATCGT | -0.0411 ± 0.0035
CCTCTTGA | -0.0739 ± 0.028
GGCCTGTA | -0.335 ± 0.069
GTGGGGAA | 0.253 ± 0.034
AAGGCCAT | -0.225 ± 0.0052
CTGCGCAC | 0.159 ± 0.038
GCCGGTCA | 0.158 ± 0.0024
GGTGTTAA | 0.479 ± 0.0049
GCGAAACA | 0.202 ± 0.076
ACCATTGC | -0.085 ± 0.019
CGAGTTAC | -0.0449 ± 0.031
AGAGGTTC | -0.124 ± 0.022
CTCAATTC | -0.148 ± 0.035
CTCACGAG | 0.09 ± 0.075
ATCATGCA | -0.319 ± 0.006
CCGAATAC | -0.127 ± 0.047
AAATAATG | -0.0889 ± 0.014
GGACGAAC | -0.182 ± 0.031
